# ± gives the standard deviation of the averaged measurements. Some of the results follow.
# Test system: PfAP2-I AP2 domain 3 (GST-tagged)
# Experiment: gcPBM binding intensity (ln(normalized median fluorescence intensity)); higher = stronger DNA binding
# Method in brief: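 DNA-binding domains from P. falciparum, fused to GST and produced in E. coli, were put on an Agilent 4 × 180k double-stranded probe array for 1 h in 1× PBS holding 1% milk, 0.2 mg/ml BSA, 0.5% salmon testes DNA and 0.03% Triton X-100. Probes were primer-extended, 36 bp long and drawn from intergenic genomic regions, with negative controls included. After Alexa488 anti-GST antibody detection and a 488 nm scan, binding intensity was set as the highest Masliner-normalised natural-log median intensity across replicate spots of either probe orientation.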
row,Sequence,gcPBM binding intensity (ln)
1,TCGTGTTTTAAAAAAATGAAGAAAAGTAAAAAAAAA [XGTACX_negctrl_site23],8.01 ± 0.74
2,ATTAAATGTATGACTTGTACATAAAATAAAAAAAAA [XGTACX_site6555],7.78 ± 0.55
3,TAATATGAATATATATGTACATACAATTTGTTATAT [XGTACX_site5815],8 ± 0.45
4,TATCCTAATGCTACCACACACACAAAAACAAATAAT [CACACA_site2609],8.51 ± 0.16
5,ATGTTGAAAGGAAAAAATAATAAAATCGATATATTA [CACACA_negctrl_site549],7.49 ± 0.71
6,AAAAAAAAGAATAGAGCATGCAAAATATATGAAATA [TGCATGCA_site933],7.78 ± 1.1
7,CCTTACTTCTTATAAAGTACCCAATGATATACATTA [XGTACX_site1554],7.91 ± 0.5
8,AATATTTATGGGTGCACACAAACATACATATATATA [CACACA_site3395],10.8 ± 0.29
9,TTTTAATGTATATTTTGTACGTATTATTAATATTCG [XGTACX_site8453],7.74 ± 0.4
10,ATTTTCCTTTAATTATGTACTTATGTAATAATAATG [XGTACX_site2612],7.83 ± 0.34
11,ATCTCTACAAAGTGCACACACGTAAAAACATATATA [CACACA_site6046],10.2 ± 0.38
12,TGTATGATTATGTTGTGTACGTAAAATATGAAAAAT [XGTACX_site1720],8.65 ± 0.38
13,GTATCATAAAAGTATACACACATACATACATATGTA [CACACA_site5456],7.96 ± 0.42
14,AATTTTTTTCTCCAAGTGCATTAGAACATTAACGTA [GTGCAC_site9413],10.9 ± 0.53
15,ATATATTTATGTATCACACACAAAAAAAAAAAATAA [CACACA_site255],7.69 ± 0.47
16,ATTATTATTTATATGATACACACGTACATATACGCA [CACACA_site3823],7.86 ± 0.46
17,TATAAAAAATAATTATCATGAAATATATGATCATCA [TGCATGCA_negctrl_site137],7.37 ± 0.64
18,TCAAAAATGAGTTACACACACACATATATATATATA [CACACA_site2229],9.46 ± 0.32
19,ATATGAATAAATAAAAGTACATACATAATGTATTAT [XGTACX_site5969],7.75 ± 0.53
20,TTAAAAAAAATATAATGTACTTGTAGAATTATATTT [XGTACX_site6220],7.54 ± 0.39
21,TATATTTTTTATAAATGTACATGGATAGGCATAAAC [XGTACX_site8401],8.48 ± 0.7
22,ACAAATAAATAAAAAACACACACAAATAAATAAATA [CACACA_site8708],7.71 ± 0.69

row,Sequence,gcPBM binding intensity (ln)
1,AGTATATAAAATACTGTATCGATGGGGGAGGGCGCA [CACACA_negctrl_site1612],9.6 ± 0.31
2,AATATAATGCAATATACACACATATATTTCTCTTTT [CACACA_site7276],8.59 ± 0.099
3,TAATAATAAAATATTTGTACATATAAAATATGGCTG [XGTACX_site7904],7.5 ± 0.35
4,TATATATAATATATATGTACATAATATATTTTATAT [XGTACX_site2909],7.74 ± 0.18
5,TAAAACACTCATGGCACACATAAAACATTTTTATGA [CACACA_site3574],8.18 ± 0.24
6,AGTTTAAATTAAATTACACACTACGAATAATATATT [CACACA_site7811],7.86 ± 0.28
7,AGTATAAGCATTATTGTGCACATAATTATAATTTTT,10.6 ± 0.53
8,TATTAATCTTTTTTTAAACAAAAAATTAAGCAAATT [CACACA_negctrl_site884],7.59 ± 0.57
9,TATATATTAATAAATAGTACCCGTGGAATTTATATT [XGTACX_site5855],7.75 ± 0.4
10,GTTGCAATTAACACTAGTACATATAAGTAGTTTATT [XGTACX_site2063],7.72 ± 0.61
11,ATTGTTCTCCAAAAGTGTACGTATTATTTTTCTGGA [XGTACX_site1404],7.92 ± 0.53
12,AATAATGAAACAGGAAAAAAATATTGTTAAAATGTA [XGTACX_negctrl_site400],7.95 ± 0.78
13,AACAAATATATTAACACACAAACATATAAACCAATG [CACACA_site3970],7.96 ± 0.64
14,AATTATTGTGAAGGGAAAACAAAAAAGTTTATAATT [CACACA_negctrl_site1337],8.01 ± 0.72
15,AACTAATAAAAAAAAAGTACACAATATGTAAATAAC [XGTACX_site5263],8.29 ± 0.38
16,AAGCGAATATATATCACACACAAAAAAATCAGACTA [CACACA_site2108],7.7 ± 0.62
17,AAATTAATTAAATATACACACATATATAGATATATA [CACACA_site6321],7.5 ± 0.49
18,ACCACATTTTTTTTTGCATGTTGTTTAAAAAAAGGC [TGCATGCA_site137],7.97 ± 0.67
19,TATATATTATATATATGTACATACTTTTTACGTTCA [XGTACX_site2493],7.83 ± 0.29
20,TATTGTAATATTAGCACACATTACCTCACTACAAAT [CACACA_site5419],8.75 ± 0.35
21,AACATGAAAATATATGCATTTGTATATATATATATA [TGCATGCA_negctrl_site16],9.25 ± 0.83
22,AAAATACTAGATAGGGGAAAAAAAAAAAAAAAAAAA [CACACA_negctrl_site1732],8.19 ± 0.71

row,Sequence,gcPBM binding intensity (ln)
1,AAAGCACCCATGCACACACACAAAGGAAAAGAAAAA [CACACA_site6249],8.32 ± 0.38
2,ATAAATGATAAAATTGCATGTGAATGTGAAAATATT [TGCATGCA_site251],7.95 ± 0.73
3,AATAAAACCCCGAAATCACACATTAAATGAAAAATA [CACACA_site4732],8.74 ± 0.89
4,TGGGAAAATAATATTTATTTTATATATAAATATATA [CACACA_negctrl_site121],7.28 ± 0.32
5,TAAAATAAAACAAACACACACACACGGACACAAAAA [CACACA_site7754],8.31 ± 0.3
6,TTTTTTTTTTATTTTGCACACTTCTAATTTAGTTCT [CACACA_site5828],10.3 ± 0.13
7,ATATAAATAAAATATACACACATACTGTTCATTTAA [CACACA_site7880],7.71 ± 0.49
8,AAAAAAAAAAAAGATTGTACAGAATACTTTTAAAAT [XGTACX_site3576],7.54 ± 0.57
9,AAGTTAATGAAAAAATGTACCCAGAGTATTTTAAAA [XGTACX_site2997],7.59 ± 0.57
10,TTGTTTTTCTTTGAATGTACTTAATGATTTCCAATT [XGTACX_site2499],7.7 ± 0.59
11,TCCATATATTTTAAAAGTACACATAAAAATTATTTA [XGTACX_site8127],8.055 ± 0.049
12,AATGGAAAAATAGGCACACACACATATATACATATA [CACACA_site1298],7.98 ± 0.51
13,GTTTCAAAATTAAACACACACAAAAAAAAAAAAAAA [CACACA_site2680],8.01 ± 0.42
14,TATTATATCTTTATTATTCATCTAAAATTTGTATTT [TGCATGCA_negctrl_site233],7.52 ± 0.35
15,CTATAACCTCTGTTCACACATATATCATAATTTACA [CACACA_site5446],8.04 ± 0.59
16,TTTATTTTGATTTAATGTACAAATAGTAAAACAAAA [XGTACX_site4789],7.93 ± 0.33
17,ACATTATATCTAAGTACACACATTAATTTTTTTTTT [CACACA_site7850],8.07 ± 0.35
18,TATTTAAAAGCATATACACACAACTGGAATGAAAAG [CACACA_site6128],8.14 ± 0.77
19,TATATAATATATATATGTACACATATACATTTTTAT [XGTACX_site2832],7.7 ± 0.3
20,TTTTCGGATAATAATTGTACGAAACATTTAAAAAAA [XGTACX_site8898],7.63 ± 0.52
21,TTGTAAGAAAAACACACACACACATATATATATATA [CACACA_site795],9.46 ± 0.41
22,ACTCAAAATTATAATTGTACAAATGCTTTGTTTAAT [XGTACX_site3437],7.79 ± 0.49

row,Sequence,gcPBM binding intensity (ln)
1,TAAATAGTTATAAAAGTGCAAAAAAAAAAAAAAAAA [GTGCAC_site9550],10.1 ± 0.53
2,ATCATATATGTTATTACACACGTTATGTTATTATAA [CACACA_site2712],7.92 ± 0.43
3,TATAATTTAGCTTGTGCATGCAGGTGCTACATTTGT [TGCATGCA_site217],9.92 ± 0.042
4,TTAATTTCAAGTAGAAGTACTTTTATGATTGTGAGG [XGTACX_site1247],7.63 ± 0.47
5,GTGCATAGATGATATACACACAATATAATAGTATGT [CACACA_site5373],9.48 ± 0.52
6,AATTTAAAAGAAAAAGAAAAATAATAAACAGAAGCA [XGTACX_negctrl_site503],7.63 ± 0.76
7,ATAAAACAAAAATATAAACACACATACATTGGTTTT [CACACA_site8809],7.9 ± 0.83
8,ATAAAAAATAAATATATACATACATACATACATATA [XGTACX_negctrl_site507],7.46 ± 0.49
9,TTTTCAAAAATATACACACACATAAATATAGGTATA [CACACA_site6506],7.71 ± 0.35
10,TTGATTTACTATAGATGTACGTAAAATATAAATAAA [XGTACX_site8256],7.92 ± 0.26
11,AATATATAAATAAATACACACATAAAATAGAAATAT [CACACA_site1663],8 ± 0.62
12,AAAAACAAAAAAGAAGCACACATATATATATATATA [CACACA_site8779],9.62 ± 0.3
13,CCTTATTATTATTTTACACACGTCCTAATAAGAGGA [CACACA_site1319],8.19 ± 0.63
14,TATTTAAAAATATATACACACATTTTATATTATTAT [CACACA_site781],7.47 ± 0.41
15,AATATTATATATATGGGTACTAATTCCTTTAATTTC [XGTACX_site102],7.45 ± 0.53
16,TTTATCTGATATATTACACACAAAAAAAAAAAAAAA [CACACA_site7637],7.93 ± 0.79
17,TATTTTACAAAATAAGGTACGTAAATATATGGTAGG [XGTACX_site2133],8.18 ± 0.64
18,AAATATCTTTTATATTGTACATATTCCTTATGTGGA [XGTACX_site7638],7.44 ± 0.47
19,GAAATAGAAATAAAATAGGCATACAATAGAACTAAG [TGCATGCA_negctrl_site537],7.82 ± 0.64
20,TTATATATATATAATACACACATAATAATATATTTA [CACACA_site3038],7.67 ± 0.23
21,ATTTTTTTTATTTTTTCAATATATATATATATATAT [CACACA_negctrl_site1444],9.45 ± 0.32
22,TTATATATATATTATAGTACATATATAATATAGTAA [XGTACX_site6869],7.45 ± 0.3
